# PubChem BioAssay (NCI)
# Values joined by “and” are separate entries in the source; they are usually repeats but may differ in a detail not shown here. Equal entries are not always repeated.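 Interpolation was linear, between the two tested concentrations surrounding the appropriate level; five concentrations were tested over 48 hours in 96-well plates. At the GI50, growth is halved. TGI denotes the concentration required for complete inhibition of growth.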
# System: NCI-H322M lung
# Assay: growth of human tumour cells (NCI), 48 h
SMILES,TGI,GI50
CN(C)CCOc1ccc(I)cc1Cc1ccccc1,27 µM,–
CC1=C2C(=O)O[C@@H](c3ccoc3)[C@]2(C)CCC1=O,> 100 µM,–
O=[N+]([O-])c1ccc(Sc2ncccn2)c([N+](=O)[O-])c1,24.6 µM,12.1 µM
O=[N+]([O-])c1ccc(-c2ccc(/C=N/n3c(-c4ccc(Cl)cc4)n[nH]c3=S)o2)cc1,> 100 µM,–
COc1cc(CCc2cc(NC(=O)c3ccc(N4C[C@@H](C)N[C@@H](C)C4)cc3)n[nH]2)cc(OC)c1,> 10 µM and 17.8 µM,7.6 µM and 5.15 µM
NS(=O)(=O)c1ccc(NC(=O)c2cc([N+](=O)[O-])cc([N+](=O)[O-])c2)cc1,> 100 µM,–
CC1(C)N=C(N)N=C(N)N1c1cccc(/C=C/C=C/c2cccc([N+](=O)[O-])c2)c1,19.9 µM,6.75 µM
C=C(c1ccccc1N)[C@@]1(O)C[C@H](/C(=C\C)CO)C[C@@H]1NCc1ccccc1,> 100 µM,–
Cn1ncc2cc3c(Nc4ccc(Cl)cc4)cccc3nc21,68.6 µM,–
CSC(SC)=C1C(=O)NN=C1C,> 100 µM,–
COC(=O)c1cnc(=O)n(C2CC(O)C(CO)O2)c1 (stereo not given),> 100 µM,> 100 µM
COc1c(Cl)ccc(Cl)c1C(=O)NNC(=O)c1c(Cl)c(Cl)c(Cl)c(Cl)c1-c1nc2ccc(C(=O)c3ccccc3)cc2[nH]1,> 100 µM,–
N#Cc1ncn(-c2ccccc2)c1N,> 100 µM,–
CC(=O)OCCC1c2ccccc2-n2nc(-c3ccccc3)c(O)c21 (stereo not given),40.4 µM,–
O=c1c(Cl)nnc2sc3ccccc3n12,42.5 µM,13.4 µM
Cc1nc(-c2ccccc2)c(C)n2c1nc1ccccc12,> 100 µM,–
NC(N)=NC(CC(=O)O)c1ccccc1 (stereo not given),> 100 µM,–
Nc1nc(N)[n+]([O-])c(N)c1NCO,> 100 µM,–
O=C1C(C(O)(C(F)(F)Cl)C(F)(F)Cl)CCC1C(O)(C(F)(F)Cl)C(F)(F)Cl (stereo not given),> 10 µM,–
O=C(O)CCC(NC(=O)c1ccc(Nc2nc3ccccc3nc2C(=O)O)cc1)C(=O)O (stereo not given),> 100 µM,–
COc1c(OC(C)=O)ccc(/C=C2\N=C(C)OC2=O)c1[N+](=O)[O-],> 100 µM,–
CC[C@@H]1CN2CCC1C[C@@H]2C(O)c1ccnc2ccc(OCCN3CCN(CCOc4ccc5nccc(C(O)[C@@H]6C[C@@H]7CCN6C[C@@H]7CC)c5c4)CC3)cc12 (stereo not given in full),27.5 µM,–
CC(=O)O[C@H]1C(=O)[C@@]2(C)C([C@H](OC(=O)c3ccccc3)[C@]3(O)C[C@H](OC(=O)[C@H](O)[C@H](NC(=O)c4ccccc4)c4ccc(Cl)cc4)C(C)=C1C3(C)C)C1(OC(C)=O)CO[C@@H]1C[C@@H]2O (stereo not given in full),0.0736 µM,–
CCCCOC(=O)C(=O)C(CC(C(=O)Cc1ccccc1)c1ccccc1)C(=O)C=C(C)C (stereo not given),> 100 µM,–
O=C1C2=C(c3ccccc31)C(c1ccc(Cl)cc1)N1C(=O)CCSC1=N2 (stereo not given),> 100 µM,–

SMILES,TGI,GI50
COc1cc(O)c(C(=O)/C=C/c2ccccc2)c(OC)c1,17.6 µM,–
COC(=O)[C@]12CC[C@@H](C)[C@H](C)[C@@H]1C1=CC[C@@H]3[C@@]4(C)CC(=O)[C@H](O)[C@@]5(C)COC(=C45)C[C@@]3(C)[C@]1(C)CC2,33.2 µM,17.2 µM
COc1cc([C@@H]2c3cc4c(cc3[C@H](OC3OC5COC(C(C)C)OC5C(O)C3O)C3COC(=O)[C@@H]32)OCO4)cc(OC)c1O (stereo not given in full),80.7 µM,–
OC1c2ccccc2[C@@H]2[C@H]1[C@@H](c1ccccc1)C1(Cc3ccccc3C1O)[C@H]2c1ccccc1 (stereo not given in full),22.5 µM,–
COc1cc2c(cc1OC)C(=O)C(Br)CC2 (stereo not given),28.3 µM,14.9 µM
CC1=C(C(=O)Nc2ccc([N+](=O)[O-])cc2)C(c2ccco2)C(C(=O)Nc2ccc([N+](=O)[O-])cc2)=C(C)N1,> 100 µM,–
Nc1nc(Cl)c(C=O)c(NCC2(CO)CC(CCc3ccccc3)C2)n1 (stereo not given),26.4 µM,–
COc1cc(C2C(Cl)C(=O)N2n2cnc3ccccc3c2=O)cc(OC)c1OC (stereo not given),> 100 µM,–
O=C1CC(=O)N(C2CCCCC2)C(=O)N1c1ccccc1S(=O)(=O)Oc1ccccc1,> 100 µM,–
O=C(Nc1n[nH]c2nc(-c3ccco3)c(Br)cc12)C1CC1,> 25 µM,> 25 µM
CC(=O)N1c2ccccc2C(C)(C)OC1C(Cl)(Cl)Cl (stereo not given),> 100 µM,–
Cc1ccc2c(c1)NC(c1ccc(C(=O)O)cc1)c1cccn1-2 (stereo not given),71.6 µM,–
COc1ccc(/C=C2\CN(C(=O)CCN3CCC(=NO)CC3)C/C(=C\c3ccc(OC)cc3)C2=O)cc1,5.76 µM,2.31 µM
CC(=O)Oc1c(C)cc(-c2cc(C)c(OC(C)=O)c(C)c2)cc1C,> 100 µM,–
O=C1C2=C(c3ccccc31)C(c1cccc(Cl)c1)NC(=S)N2 (stereo not given),> 100 µM,–
CCC1(OC(=O)CN2CCN(CCO)CC2)C(=O)OCc2c1cc1n(c2=O)Cc2cc3ccccc3nc2-1 (stereo not given),11.8 µM,–
Cc1cc(Br)cc(C)c1NC(=O)C(=O)CC(=O)c1sc(-n2nc(-c3ccccc3)cc2-c2ccccc2)nc1C,> 100 µM,–
COC(=O)C1Cc2c([nH]c3ccccc23)C(c2cccc(O)c2)N1 (stereo not given),84.2 µM,–
CC12OC(C(=O)C13CC3)C1C(=O)c3ccccc3C(=O)C12 (stereo not given),> 100 µM,34.1 µM
CC(C)=CC(=O)CC(=O)C(=O)Nc1ccc(C)c(C)c1,> 100 µM,–
O=S(=O)(c1ccc(NC(=S)N/N=C/c2ccccc2O)cc1)N1CCCCC1,2.98 µM,–
O=S(=O)(c1cc(Cl)ccc1Cl)N1CCN(c2ccc(Cl)c(Cl)c2)CC1,> 100 µM,–
CC(=O)OCC1OC(Nc2ccc3nc(C)n(-c4cccc(C)c4)c(=O)c3c2)C(OC(C)=O)C(OC(C)=O)C1OC(C)=O (stereo not given),> 62.5 µM,–
O=C(c1ccc(Cl)cc1Cl)N(Cc1cccnc1)C(=S)N(Cc1cccnc1)C(=O)c1ccc(Cl)cc1Cl,12 µM,–
CC12CC3CC/C(=N\O)C(C1)C3(N1CCOCC1)C/C2=N/O (stereo not given),> 100 µM,–
